The source of these data is PubChem BioAssay (NCI).

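Growth conditions: 96-well plates. Treatment: test compound, 48 hours, 5 concentrations. Analysis: linear interpolation between bracketing concentrations; unreached endpoints set to highest concentration. GI50: concentration for 50% inhibition of growth. TGI marks complete inhibition of growth.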

This experiment relates to NCI-H322M lung. The experiment is described as follows: DTP human tumour cell line panel, 48 h.
For the compound `CN1CCn2c(c(Sc3ccc(C(=O)NO)cc3)c3ccccc32)C1=O`, the GI50 is 2.68 µM and the concentration for total growth inhibition (TGI) was 7.97 µM.
Compound `CC(C)CCc1c(Cl)nc(Cl)nc1Cl` gave a TGI of 31.4 µM. This counts as double-digit micromolar.
For `Cc1ccc(S(=O)(=O)c2c3[nH]c4ccccc4nc3n3c2nc2ccccc23)cc1`, the TGI is more than 100 µM.
Take `N#CC1=C(N)Oc2c(sc3c(F)cccc23)C1c1ccc(F)cc1` (stereo not given): the GI50 was 2.87 µM and the TGI was found to be 18.7 µM.
The corresponding values for `NCCCCN(Cc1nc2ccccc2[nH]1)[C@H]1CCCc2cccnc21` are 12.6 µM and more than 100 µM.
With `O=C(CN1CCOCC1)Nc1ccc2c(c1)C1Oc3ccccc3CC1CO2` (stereo not given), the concentration for total growth inhibition (TGI) is more than 100 µM.
Compound `Cn1c(=O)c(C(=O)NC(=O)OCc2ccccc2)cn(CCSCCOC(=O)NCCCCCCNC(=O)OCCSCCn2cc(C(=O)NC(=O)OCc3ccccc3)c(=O)n(C)c2=O)c1=O` yielded a TGI of more than 100 µM.
`Cc1csc2nc3[nH]ncc3c(=O)n12` returned a TGI of more than 100 µM.
The same measure, in the same setting: the same measure for `O=C1c2ccccc2-c2c1c(-c1ccccc1)c1n2C2(C(=O)c3ccccc3C2=O)C2C(=O)N(c3ccccc3)C(=O)C12` (stereo not given): 51.7 µM; for `[C-]#[N+]C1(C(=O)OCC)CC1`: more than 100 µM.
For the compound `O=C(CCCCCCC(=O)Nc1ccc2c(c1)/C(=C/c1ccc[nH]1)C(=O)N2)NO`, the GI50 is 0.976 µM and the total growth inhibition concentration (TGI) is 11.5 µM.
In turn, `CCOC(=O)C(=CNC(=S)Nc1c(CC)cccc1CC)C(=O)OCC` displayed a concentration for total growth inhibition (TGI) of more than 100 µM.
On the same count and under the same terms, the same measure for `Nc1nc(Cl)cc(NCCCCCCCCCCCCNc2cc(Cl)nc(N)n2)n1`: more than 100 µM; for `Cc1ccc(S(=O)(=O)NC2=NS(=O)(=O)c3cc(C)c(Cl)cc3S2)cc1`: more than 100 µM; for `O=P1(O)c2ccccc2Nc2cc(C(F)(F)F)ccc21`: more than 100 µM.
With `CCCCCCCCCC1CC(=O)NCC(=O)NC(C(C)C)C(=O)NC(CC(C)C)C(=O)NC(C)C(=O)NC(C(C)C)C(=O)O1` (stereo not given), the TGI was 73.5 µM.
`CSC(=S)OC1C(CO[Si](C)(C)C(C)(C)C)OC2OC(C)(C)OC21` (stereo not given) registered a concentration for total growth inhibition (TGI) of 41.1 µM. Against the preceding compound, the TGI is about 1.8-fold lower.
The same measure, in the same setting: the same measure for `CN1CCN(CCCCN2c3ccccc3Sc3ccc(N=[N+]=[N-])cc32)CC1`: 17.9 µM.
Same read-out and setting: the same measure for `Cc1nn(C(=O)Cc2ccccc2)c2c1C(c1ccccc1[N+](=O)[O-])SC(N)=N2` (stereo not given): more than 100 µM; for `[C-]#[N+]C(C)(C)C[C@H]1CC(C)C2CCC(C)C3([N+]#[C-])CCC(=C)C1[C@H]23` (stereo not given in full): 37.8 µM; for `Clc1ccccc1-c1nnc2c(-c3ccccc3)nc3ccccc3n12`: more than 100 µM.
